# Experimental data reported in PubChem BioAssay AID1671194 (National Center for Advancing Translational Sciences (NCATS), 2021).
# Screen size: about 140,000 compounds; about 240 (0.17%) were called active. Inconclusive results, whose numbers are uncertain, are shown with a selection of clear calls. Calls follow the shape of the dose curve; as a rule, active = well fitted inhibition curve with a large enough effect; inconclusive = small, poorly fitted or top-dose-only effect; inactive = no such curve, though single readings can be large or run the other way. A potency beside an inconclusive call is a rough fit, not a confirmed value.
# Assay: Primary qHTS assay for inhibitors of alpha-synuclein gene (SNCA) expression; also: nearly all actives have a fitted effect of over 45% in size
# Details: HEK-293 SNCA-luciferase knock-in, luminescence, 24 h; activity change, negative = inhibition: at 57.2 µM (top of the series) unless noted
# Excerpt: Assay Submitter (PI): Daniel R. Scoles Ph.D.
# Department of Neurology, University of Utah, Salt Lake City, Utah
# Accumulation of alpha-synuclein is a main underlying pathological feature of Parkinson's disease (PD) and alpha-synucleinopathies, for which lowering expression of the alpha-synuclein gene (SNCA) is a potential therapeutic avenue. Using a cell-based luciferase reporter of SNCA expression we performed a quantitative high throughput screen (qHTS) of 155,885 compounds in dose response. The screening assay was generated using genome editing to insert the luciferase gene downstream and in frame of the SNCA gene in HEK-293 cells (1). A viability counterscreen using GF-AFC was used to eliminate cytotoxic and false positive compounds. After in silico analysis (clustering, removal of frequent hitter nuisance chemotypes), inhibitor compounds from the primary screen were selected for follow up and re-tested at 11-doses in the SNCA-luc cells (luciferase and GF-AFC confirmation), and in CMV-luc expressing cell line to flag general transcriptional repressors.
# Described herein are the results of the primary screen for SNCA inhibitors; decrease in luciferase signal (inhibition of the SNCA gene expression) is the desired output for this assay.
# 1. Dansithong, W., Paul, S., Scoles, D. R., Pulst, S. M., and Huynh, D. P. (2015) Generation of SNCA Cell Models Using Zinc Finger Nuclease (ZFN) Technology for Efficient High-Throughput Drug Screening. PLoS ONE 10, e0136930.
# SEQUENCE No. (e.g., 1, 2, 3, etc.); […] (e.g., Cells, Incubation, Reagent, etc.); VALUE; DESCRIPTION
# 1; Cells; 4 uL; Dispense 1500 HEK-293-SNCA-luc cells/well into Greiner 1536-well white / solid bottom tissue culture treated plate. The plate was covered with metal lids with gas-exchange holes.
# 2; Incubate; 24 hours; Incubate at 37C, 5% CO2, 95% RH.
# 3; Compounds; 23 nL; Compounds and controls were transferred via a Kalypsys Pin Tool (Wako USA) equipped with a 1536-slotted pin array. The plate was covered with metal lids with gas-exchange holes.
# 4; Incubate; 24 hours; Incubate at 37C, 5% CO2, 95% RH.
# 5; Dispense; 1 uL; Dispense Gly-Phe-7-amino-4-trifluoromethylcoumarin (GF-AFC, prepared at 125 uM in PBS) was added. The plate was covered with metal lids with gas-exchange holes.
# 6; Incubate; 30 min; Incubate at 37C, 5% CO2.
# 7; Detector; Fluorescence; Measure fluorescence with ViewLux microplate reader (PerkinElmer) equipped with 405/10 excitation and 540/25 emission filters.
# 8; Dispense; 3 uL; Dispense ONE-Glo ([…]) lucifase detection reagent was added to each well. Plates were covered with metal lids with gas-exchange holes.
# 9; Incubate; 15 min; Incubate at room temperature.
# 10; Detector; Luminescence; Measure luminescence with ViewLux microplate reader (PerkinElmer) equipped with clear filters.
# NOTES (numbers refer to sequence above)
# 1; HEK-293-SNCA-luc were cultured and suspended in phenol-red free DMEM (4.5 g/L glucose, 25 mM HEPES, cat #21063 (Thermo)).
# 3; Compounds were added to the assay plate in an 11-point intra plate dose response, 1:3 titration in DMSO with a final concentration range of […]. Vehicle-only plates, with DMSO being pin-transferred to every well, were inserted at the beginning of screening runs to confirm expected assay performance. Activity was normalized to wells containing medium only (-100% activity, full inhibition) and SNCA-luc cells treated with DMSO vehicle control (0% activity), contained on the same plate as test samples.
# 10; Signals were analyzed, and dose-response curves were fit using the Hill equation. Compounds in curve classes -1.1, -1.2, -2.1, -2.2 in the SNCA-luc assay were considered active. Compounds were eliminated from further consideration if also active (curve class -1.1, -1.2, -1.3, -1.4, -2.1, -2.2, -2.3, -2.4) in the GF-AFC cytotoxicity assay.
# Potency is read from the fitted curve at half-maximal effect; tags tell the direction and shape of the fitted curve.
SMILES,Potency,"activity change, negative = inhibition"
Cc1ncoc1C(=O)N1CCC[C@H](n2c(=O)n(C)c3cccnc32)C1,"inconclusive: 8.91 µM [inhibitor, partial curve, poor fit]",
O=C(CCc1c[nH]c2ccccc12)Nc1ccc(-c2nnc3n2CCCC3)cc1,,inactive: -19.5%
CCc1noc(-c2cn(C3CCN(C(=O)Cc4ccc(Cl)cc4)CC3)nn2)n1,,inactive: -22.9%
Cc1noc(C)c1-c1cc2cc(CN(C)C)oc2c(N2CCN(c3ccccn3)CC2)n1,"inconclusive: 56.2 µM [inhibitor, single point]",
COc1ccc2c(c1)c(CN1C[C@@H](C(N)=O)[C@H](c3nc(C)no3)C1)cn2C(C)C,"inconclusive: 39.8 µM [inhibitor, single point]",
O=C(O)CC1CCOCC1,,inactive: 22.5%
COc1ccccc1CNC(=O)Cn1c(=O)oc2cc(S(=O)(=O)N3CCC(C)CC3)ccc21,"inconclusive: 17.8 µM [inhibitor, single point]",
CCOc1ccc(CCNC(=O)C2CCN(C(=O)N3CC(CC)Oc4ccc(C)cc43)CC2)cc1 (stereo not drawn),"inconclusive: 17.8 µM [inhibitor, partial curve, poor fit]",
O=c1cc2c(nn1Cc1cccc(Br)c1)CCCCC2,,inactive: 80%
Cc1cccc(C(=O)Nc2ccccc2-c2nc(-c3ccccc3)no2)c1,,inactive: 36.2%
CC(C)N1C(=O)C(CC(=O)O)=C2CCCCC21 (stereo not drawn),,inactive: 5.35%
CCCCN1CC(c2nc3ccccc3n2CCCCOc2c(C)cccc2C)CC1=O (stereo not drawn),"inconclusive: 22.4 µM [inhibitor, single point]",
CN1CC(=O)N2CCN(C(=O)NC34CC5CC(CC(C5)C3)C4)CC2C1=O (stereo not drawn),"inconclusive: 5.01 µM [inhibitor, full curve, poor fit]",
COc1cc(OC)cc(-n2c(=O)[nH]c3cc(C(=O)NCCc4ccc(C)cc4)ccc3c2=O)c1,"inconclusive: 35.5 µM [inhibitor, single point]",
COc1ccc(NC(=O)N2CCc3c(sc4c3CCCC4)C2c2ccc(F)cc2)cc1 (stereo not drawn),"inconclusive: 39.8 µM [inhibitor, single point]",
CCn1c(=O)c2cc(C(=O)N(C)c3cc(C)ccc3C)sc2c2ccccc21,"inconclusive: 39.8 µM [inhibitor, single point]",
O=C(NCc1nnc2c(-c3nc(C4CC4)no3)cccn12)C1CCCC1,,inactive: -9.32%
COC(=O)N1CCC2(CC1)CCN(Cc1cccs1)c1ccccc1O2,"inconclusive: 11.2 µM [inhibitor, single point]",
O=C(CN1Cc2nc(Nc3ccc(C(F)(F)F)cc3)ccc2OCC1=O)N1CCCC1,"inconclusive: 15.8 µM [inhibitor, partial curve, poor fit]",
CN(c1ccccc1)c1cc(=O)c2ccnc(Nc3cccnc3)c2o1,,inactive: 34.5% [at 87.6 µM]
O=C(NC[C@H]1O[C@H](Cc2cc(-c3ccccn3)on2)CC[C@@H]1O)c1ccc2c(c1)OCO2,"inconclusive: 3.98 µM [inhibitor, single point]",

SMILES,Potency,"activity change, negative = inhibition"
CCC(=O)N1CCC(CC(=O)N2CCOCC2)C1 (stereo not drawn),"inconclusive: 39.8 µM [inhibitor, single point]",
O=C(NCc1ccccc1F)C1CCc2nnc(CN[S+](=O)([O-])c3ccccc3Cl)n21 (stereo not drawn),"inconclusive: 5.62 µM [inhibitor, full curve, poor fit]",
Cc1c(Cl)cccc1N1CC(c2nc3ccccc3n2Cc2ccccc2F)CC1=O (stereo not drawn),"inconclusive: 28.2 µM [inhibitor, single point]",
CCCCCSc1nnc2c(n1)OC(c1ccc(C)s1)N(C(C)=O)c1ccccc1-2 (stereo not drawn),"inconclusive: 39.8 µM [inhibitor, single point]",
COc1ccc(Br)cc1CNC(=O)CCSCc1ccc(Cl)cc1,"inconclusive: 0.891 µM [inhibitor, full curve, poor fit]",
CN1[C@@H](CCC(=O)N2CCN(c3ccccc3)CC2)CNC(=O)[C@H]2NCC[C@H]21,"inconclusive: 2.24 µM [inhibitor, full curve, poor fit]",
COCc1ccc(CN2CCC(Oc3ccc(C(=O)NC4CCCC4)cc3Cl)CC2)o1,,inactive: -11.3%
Cc1cccc(C(C)C)c1NC(=O)CN1CCC(C(N)=O)(N2CCCCC2)CC1,"inconclusive: 22.4 µM [inhibitor, partial curve, poor fit]",
Cc1noc(-c2cccn3c(CNC(=O)c4cccc(Cl)c4)nnc23)n1,,inactive: -18.5%
COc1cccc(CNC(=O)CCC2CCN(C(=O)c3ccccc3F)CC2)c1OC,"inconclusive: 6.31 µM [inhibitor, partial curve, poor fit]",
COc1ccc(N2C(=O)CCSC23C(=O)N(Cc2ccc(F)cc2)c2ccccc23)cc1Cl (stereo not drawn),"inconclusive: 28.2 µM [inhibitor, single point]",
Oc1ccc(-c2cc3c(cn2)CN(Cc2ccccc2)CCN3)cc1F,"inconclusive: 22.4 µM [inhibitor, partial curve, poor fit]",
COCC(=O)N1CCC2(CCN(Cc3ccccc3)CC2)CC1,"inconclusive: 5.01 µM [inhibitor, full curve, poor fit]",
CC1=C[C@@H](CO)[C@H](C(C)C)C[C@H]1CC(=O)NCc1ccc(F)cc1,"inconclusive: 0.891 µM [inhibitor, full curve, poor fit]",
COc1ccc(C(=O)NC2CCN(c3cc(-c4ccccc4)[nH]n3)CC2)c(OC)c1,,inactive: -8.64%
CC(NC(=O)c1c(O)nc2ccccn2c1=O)c1ccccc1 (stereo not drawn),"inconclusive: 39.8 µM [inhibitor, single point]",
Cc1ccc(C)c(C(=O)N2CCC(c3nc4c(nnn4Cc4ccccc4)c(=O)[nH]3)CC2)c1,"inconclusive: 39.8 µM [inhibitor, single point]",
COc1ccc(NC(=O)O[C@@H]2CO[C@H]3[C@@H]2OC[C@@H]3Nc2nccc(-c3cccc(C#N)c3)n2)cc1,"inconclusive: 1.78 µM [inhibitor, partial curve, poor fit]",
O=C(CCn1c(=O)c2cccn2c2cccnc21)NCc1cccc(Br)c1,"inconclusive: 25.1 µM [inhibitor, partial curve]",
COc1ccc(CNC(=O)Cn2nc(C)c3nn(-c4ccc(Cl)cc4)c(C)c3c2=O)cc1,"inconclusive: 8.91 µM [inhibitor, partial curve]",
CCCc1cc(N2CCN(c3cc(Cl)ccc3C)CC2)n2cnnc2n1,"inconclusive: 8.91 µM [inhibitor, partial curve, poor fit]",

SMILES,Potency,"activity change, negative = inhibition"
O=C([C@H]1CCCN1C(=O)c1ccccc1F)N1CCCC(c2nc3ccncc3[nH]2)C1 (stereo partly drawn),"inconclusive: 7.08 µM [inhibitor, single point]",
Cc1cc(OCC(=O)NCC2(N3CCN(C)CC3)CCCCC2)cc(C)c1Cl,"inconclusive: 7.08 µM [inhibitor, single point]",
O=C(NCCc1ccc(Cl)cc1)C1CN(c2cccc(Cl)c2)C(=O)N1 (stereo not drawn),inactive,
CC(C)c1nc2c(c(-c3ccc(O)cc3)n1)CCN(Cc1ccc(F)cc1)CC2,,inactive: 6.14%
CC(NCc1ccc2c(c1)nc(NC(=O)c1ccc(-c3cn[nH]c3)s1)n2CC(C)(C)O)C(C)(C)C (stereo not drawn),"inconclusive: 0.961 µM [inhibitor, full curve]",
c1cncc(CN2CCC(n3ncc4c(N5CCOCC5)nc(-c5ccc6[nH]ccc6c5)nc43)CC2)c1,"inconclusive: 24.1 µM [inhibitor, single point]",
CCOc1ccc2c(n1)CCN(C(=O)C1CC1)C2,"inconclusive: 4.47 µM [inhibitor, single point]",
O=C(NCc1ccccc1)[C@@H]1Cc2nc[nH]c2CN1Cc1ccc(Cl)cc1,"inconclusive: 12.6 µM [inhibitor, single point]",
COC(=O)c1c(NC(=O)c2cc3nc(-c4ccc(OC)cc4)cc(C(F)(F)F)n3n2)sc2c1CCCC2,"inconclusive: 1.12 µM [inhibitor, partial curve, poor fit]",
O=C(NCCc1ccccc1)c1ccc2nnc(-c3cccc(C(F)(F)F)c3)n2c1,"inconclusive: 2.24 µM [inhibitor, full curve]",
Cc1cccc(-c2noc([C@@H]3Cc4nc[nH]c4CN3C(=O)COCC(=O)O)n2)c1,"inconclusive: 7.08 µM [inhibitor, partial curve, poor fit]",
Cc1cc(C)n(CC(=O)N2CCN3CCS(=O)(=O)N(C4CC4)C(=O)C3C2)n1 (stereo not drawn),,inactive: 21.2%
COc1ccccc1CN1CCC2(CC1)CC(C(=O)O)N(C(C)=O)C2 (stereo not drawn),"inconclusive: 10 µM [inhibitor, partial curve, poor fit]",
O=C1NCc2ccccc2CC12CCCCN2Cc1ccccc1F (stereo not drawn),"inconclusive: 10 µM [inhibitor, single point]",
CC(=O)NCCNC(=O)CCCc1nnc2n(C)c(=O)c3sccc3n12,"inconclusive: 7.94 µM [inhibitor, single point]",
OCC1CN(Cc2ccc(Cl)o2)CCC12CCN(C1CCOCC1)CC2 (stereo not drawn),"inconclusive: 11.2 µM [inhibitor, partial curve, poor fit]",
COc1cccc(N2C(=O)NC(=NC3CCCC3)C23CCCN(C(=O)c2ccccc2OC)C3)c1 (stereo not drawn),,inactive: 3.7%
Cn1cccc1C(=O)NCC(=O)N1CCCCCNC(=O)CC1c1ccccc1 (stereo not drawn),,inactive: 52.2%
Cc1cccc(C(=O)Nc2ccc(-c3nc4ccccc4s3)cc2Cl)c1,,inactive: 5.58%
CS(=O)(=O)N1CCCN(Cc2ccc(C#N)cc2)CCNC(=O)CC1c1ccccc1 (stereo not drawn),"inconclusive: 25.1 µM [inhibitor, single point]",
CC1=C(C(=O)NC(C)(C)C)C(c2ccc(Cl)cc2)N2C(CC(=O)N3CCCC3)=CSC2=N1 (stereo not drawn),"inconclusive: 39.8 µM [inhibitor, single point]",
